Source: PubChem BioAssay AID1508623 (National Center for Advancing Translational Sciences (NCATS), 2021)
The whole screen tested about 48,000 compounds, of which about 450 (0.94%) were called active. About 19% were inconclusive and are not listed. Calls come from the whole dose curve; as a rule, active = well fitted inhibition curve with a large enough effect; inconclusive = small, poorly fitted or top-dose-only effect; inactive = no such curve, though single readings can be large or run the other way. Some of the results follow.

Experiment: Primary qHTS for Identification of Small Molecule Inhibitors of Huntingtin Promoter Activity; note: nearly all actives have a fitted effect of over 50% in size
Conditions: HEK293 HTT promoter firefly luciferase reporter (activity 0% = vehicle and -100% = no light), 24 h; series mostly up to 57.5 µM; activity change, negative = inhibition: at the top concentration
How it was run: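 Firefly luciferase signal from promoter-reporter HEK293 cells was scaled between vehicle (0%) and zero RLU (-100%). Compounds were tested at final concentrations of up to 57.5 uM over 24 h at 37 degrees C. PTC124 at 50 uM final served as control inhibitor.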

Activity change, negative = inhibition, inactive:
CCN(CC)CCCNC(=O)c1cn(C)c2ccc(S(=O)(=O)N3CCOCC3)cc2c1=O -10.4% [at 11.5 µM]
COc1ccc(NC(=O)Cn2ncc3c([nH]c4ccccc43)c2=O)cc1Cl 5.28%
CCC(C(=O)NCc1ccccc1)n1ncn2c(cc3occc32)c1=O (centres undefined) -8.43%
Cc1cccc(C(=O)Nc2cccc(C(=O)OCc3cc(=O)n4ccsc4n3)c2)c1 -0.114%
COc1ccc(Br)cc1CNC(=O)CN1C(=O)CSc2ccc(S(=O)(=O)N3CCOCC3)cc21 -11.3%
Cc1ccc(NC(=O)c2cc3c(=O)n(Cc4cccnc4)ccc3nc2C)cc1F 6.63%
COc1ccc(NC(=O)CNS(=O)(=O)c2cccs2)c(OC)c1 4.16%
COc1ccc(OC)c(CNC(=O)c2cccc(NC(=O)N3CCSc4ncccc43)c2)c1 -27.5%
NS(=O)(=O)c1cc2c(cc1Cl)NC=NS2(=O)=O
O=c1c2oc3ccccc3c2n(Cc2cccc(C(F)(F)F)c2)c(=O)n1Cc1ccc2c(c1)OCO2 -13.7%
CCOc1ccccc1N(C)C(=O)NCc1noc2ccccc12 -11.2%
CCn1cc(C(=O)NC(C)c2ccccc2)c(=O)c2cc(S(=O)(=O)N3CCc4ccccc4C3)ccc21 (centres undefined) -23.1%
Cc1ccc(-n2nc(C)c3nc(CCC(=O)Nc4ccc(F)cc4)c(=O)n(C)c32)cc1 3.41%
Cc1ccc(NC(=O)Cn2cc(S(=O)(=O)N3CCCC3)c(S(=O)(=O)N3CCCC3)c2)c(C)c1 17.9% [at 11.5 µM]
CC(C)Nc1cccnc1N1CCN(C(=O)c2cc3cc(NS(C)(=O)=O)ccc3[nH]2)CC1 -4.35%
O=C(NCCc1ccc(Cl)cc1)c1cccn1-c1nnc(N2CCCC2)s1 -17.1%
COc1ccc(C(=O)c2cn(CC(=O)Nc3ccc4c(c3)OCO4)c3ccc(OC)cc3c2=O)cc1 -16.5%
CCCn1cc(S(=O)(=O)c2ccccc2)c(=O)c2cc(F)c(N3CCCC3)cc21 -9.29%
CCc1ccccc1NC(=O)c1cc(S(=O)(=O)NC2CCCC2)ccc1F -25.2%
Nc1ccc(S(=O)(=O)Nc2ccccc2)cc1 -6.64%
COc1ccc(-n2nc(C(=O)N3CCN(c4cccc(C)c4)C(C)C3)c3c4ccccc4n(C)c3c2=O)cc1 (centres undefined) -4.05%
CCCn1ccc2c(OCC(=O)Nc3ccc(F)cc3F)cccc2c1=O -25.1%
Cc1cccc(NC(=O)CSc2nc3c([nH]c4ccccc43)c(=O)n2-c2ccc(F)cc2)c1C -24.8%
Cc1ccc(C(=O)N/C(=C\c2cn(S(=O)(=O)N(C)C)c3ccccc23)C(=O)NCCCn2ccnc2)cc1 0.187%
COc1ccc(CNC(=O)CN2C(=O)COc3ccc(S(=O)(=O)N4CCCCCC4)cc32)cc1 -13.9%
COc1ccc(-n2c(SCC(=O)NCc3ccccc3)nc3ccsc3c2=O)cc1 -11.9%
COC(=O)c1sccc1S(=O)(=O)N(CC(=O)Nc1cc(C)cc(C)c1)c1ccc(Cl)cc1 -0.947%
COc1ccc(C2(C#N)CCC(C(=O)O)CC2)cc1OC1CCCC1 (centres undefined) 32.7%
COc1ccc(CNC(=O)c2ccc(CNS(=O)(=O)c3ccc(OC)cc3)cc2)cc1 -6.17%
COc1cccc(NC(=O)c2ccc3c(=O)n4nc(Nc5ccccc5OC)sc4nc3c2)c1 -7.92%
COCCCNC(=O)c1ccc(Cn2c(=O)c3ccccc3n(Cc3ccc(C)cc3)c2=O)cc1 -10.4%
COCCOC(=O)Cn1nnc2sc(-c3ccccc3)cc2c1=O -6.49%
Cc1nn(S(=O)(=O)c2ccc(C(C)C)cc2)c(C)c1S(=O)(=O)N1CCCCC1 -8.93%
Cc1ccc2c(c1)-c1c(cnn1CC(=O)N1CCN(c3cccc(C(F)(F)F)c3)CC1)CO2 -19.2%
CC(=O)OC[C@@H]1O[C@@H](n2ccc(=O)[nH]c2=O)[C@H](OC(C)=O)[C@H]1OC(C)=O -20.8%
CCc1cccc(C)c1NS(=O)(=O)c1ccc2c(c1)NC(=O)C(C)C(=O)N2 (centres undefined) -15.3%
CCOc1ccc(-n2c(=O)c3c4c(sc3n(CC(=O)NCCCOC)c2=O)CCCCC4)cc1 -12.9%
CCN(CC)c1ccc2cc(-c3nc(-c4ccccc4)no3)c(=O)oc2c1 20.5%
Cc1ccc(CNC(=O)c2c(-c3ccc(F)cc3F)noc2C)o1 -10.8%
Cc1cc(C)c(NC(=O)Cn2nnc(C(=O)NCc3cccs3)c2N)c(C)c1 -14.3%
COc1ccc(-c2cn3nc(N4CCCC(C(=O)Nc5cc(Cl)ccc5OC)C4)sc3n2)cc1 (centres undefined) -3.53%
COc1cc(NC(=O)Cn2c(=O)n(-c3ccccc3)c(=O)c3c4c(sc32)CCCC4)cc(OC)c1 -10.4%
COc1ccc(CC(=O)NCC(c2ccc(N(C)C)cc2)N2CCOCC2)cc1OC (centres undefined) -5.2%
CCOC(=O)c1cc2c(=O)n3ccccc3nc2n(Cc2ccco2)c1=NC(=O)c1ccc(OC)cc1 -3.59%
CSc1ccc(CNC(=O)c2ccc3c(c2)N(C)C(=O)C2CCCCN32)cc1 (centres undefined) 21.4%
CC(C)COc1ccc(C(=O)Nc2scc(-c3ccc(Br)cc3)c2C(=O)OC(C)C)cc1 -17.6%
Cc1nc2cccnc2n1C1CCN(C(=O)Nc2ccccc2C(F)(F)F)CC1 9.52%
COc1ccc(CCN(C)CCCN2CCc3cc(OC)c(OC)cc3CC2=O)cc1OC -0.968%
CNS(=O)(=O)c1cn(CC(=O)N2CCN(c3ccc(Cl)cc3)CC2)cc1S(=O)(=O)NC -0.215%
COc1ccc(C(=O)COC(=O)CCCC(=O)Nc2ccc(C(C)=O)cc2)cc1 65.9%
CCOc1ccc(-n2nc(CO)c(C(=O)NCC(c3ccccc3)c3ccccc3)n2)cc1 -0.744%
O=c1ccc2cc(S(=O)(=O)NCc3ccc(Cl)cc3)ccc2[nH]1 -18.3%
O=C(NCc1ccccc1)c1cccc(N2CCCS2(=O)=O)c1 0.875%
O=C(CSc1nccn1Cc1ccc(F)cc1)NCc1ccccc1 -11.3%
COc1ccc(-n2ncc(C(=O)NCc3ccc4c(c3)OCO4)c2C2CCN(C(=O)OC(C)(C)C)CC2)cc1 -19.8%
Cc1ccccc1CNC(=O)Cc1csc2ccccc12 44.2%
CCN(CC)C(=O)c1sc2c(c1C)c(=O)n(Cc1ccccc1)c(=O)n2CC(=O)Nc1ccc(OC)cc1 -19.8%
O=C(OCC(O)CO)c1ccccc1Nc1ccnc2cc(Cl)ccc12 (centres undefined) -4.96%
COC(=O)c1ccc(-n2nnc(-c3nsc(NC(=O)c4ccc(Cl)cc4)n3)c2C)cc1 -3.63%
